Data as given in patent US20130184251A1, “HETEROAROMATIC AND AROMATIC PIPERAZINYL AZETIDINYL AMIDES AS MONOACYLGLYCEROL LIPASE INHIBITORS” (Janssen Pharmaceutica, NV, priority 2009, published 2013).

What was measured:
[1] = molecular target: T1, purified mutant MGL (mut-MGLL 11-313 L179S L186S) (Homo sapiens, UniProt Q99685, L169S/L176S); settings: read-out: Ex. 3 (mutant) IC50
T1 sequence (Q99685 1-303 L169S/L176S): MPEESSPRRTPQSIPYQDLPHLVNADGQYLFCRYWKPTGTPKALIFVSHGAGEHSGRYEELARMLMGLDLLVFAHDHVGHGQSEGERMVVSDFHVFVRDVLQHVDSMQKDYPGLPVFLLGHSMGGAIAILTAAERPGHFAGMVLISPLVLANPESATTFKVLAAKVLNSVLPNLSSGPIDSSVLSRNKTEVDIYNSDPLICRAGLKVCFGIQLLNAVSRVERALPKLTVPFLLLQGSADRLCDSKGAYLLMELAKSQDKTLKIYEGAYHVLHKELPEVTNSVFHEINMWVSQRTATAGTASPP

[2] = molecular target: T1, purified mutant MGL (mut-MGLL 11-313 L179S L186S); settings: read-out: Ex. 4 Kd; ThermoFluor, mutant MGL
[3] = molecular target: T1, purified mutant MGL (mut-MGLL 11-313 L179S L186S); experiment: biochemical; settings: Ex. 3 (mutant) IC50, mutant MGL (mut-MGLL 11-313 L179S L186S)
[4] = molecular target: T1, purified mutant MGL (mut-MGLL 11-313 L179S L186S); experiment: biochemical; settings: Ex. 4 Kd, ThermoFluor

c1ccc(Cc2ccc(N3CC(N4CCCN(c5ncccn5)CC4)C3)cc2)cc1 [compound 110, 1-[1-(4-Benzyl-phenyl)-azetidin-3-yl]-4-pyrimidin-2-yl-[1,4]diazepane]
pIC50 ([1]; mutant MGL (mut-MGLL 11-313 L179S L186S)): 5.77
pKd [2]: 5.70

O=C(c1ccccc1)c1ccccc1C(=O)N1CC(N2CCN(c3ccccn3)CC2)C1 [Compound #201]
pKd [2]: < 4.12

O=C(CCc1ccccc1)N1CC(N2CCN(c3ccccn3)CC2)C1 [Compound #208]
pIC50 ([1]; mutant MGL, substrate 4MU-B): < 4.82
pKd [2]: 4.78

Cc1ccc(-c2cc3cc(C(=O)N4CC(N5CCN(c6ccccn6)CC5)C4)ccc3n2CC(C)C)cc1 [Compound #215]
pIC50 ([1]; mutant MGL, substrate 4MU-B): 7.22

COc1ccc(-c2nc3cccc(C(=O)N4CC(N5CCN(c6ccccn6)CC5)C4)c3o2)cc1 [Compound #210]
pKd [2]: 7.08

O=C(c1ccc(N2CCCCCC2)cc1)N1CC(N2CCN(c3ccccn3)CC2)C1 [compound 3, 1-(4-{[3-(4-Pyridin-2-ylpiperazin-1-yl)azetidin-1-yl]carbonyl}phenyl)azepane]
pIC50 [3]: > 8.30
pKd [4]: 8.10

O=C(c1ccccc1)c1ccc(C(=O)N2CC(N3CCN(c4ccccn4)CC3)C2)cc1 [compound 74, Phenyl(4-{[3-(4-pyridin-2-ylpiperazin-1-yl)azetidin-1-yl]carbonyl}phenyl)methanone]
pIC50 [3]: 5.92
pKd [4]: 5.66

CC(C)(C)OC(=O)N1CCC(c2ccc(C(=O)N3CC(N4CCN(c5ccccn5)CC4)C3)cc2)CC1 [compound 122, tert-Butyl 4-(4-{[3-(4-pyridin-2-ylpiperazin-1-yl)azetidin-1-yl]carbonyl}phenyl)piperidine-1-carboxylate]
pIC50 [3]: 6.88
pKd [4]: 6.38

O=C(c1ccc2ncccc2c1)N1CC(N2CCN(c3ccccn3)CC2)C1 [compound 115, 6-{[3-(4-Pyridin-2-ylpiperazin-1-yl)azetidin-1-yl]carbonyl}quinoline]
pIC50 [3]: 5.09
pKd [4]: 5.18

O=C(c1ccc(-n2cccn2)cc1)N1CC(N2CCN(c3ncccn3)CC2)C1 [compound 46, 2-[4-(1-{[4-(1H-Pyrazol-1-yl)phenyl]carbonyl}azetidin-3-yl)piperazin-1-yl]pyrimidine]
pIC50 [3]: 6.82
pKd [4]: 6.34

Cc1cccnc1N1CCN(C2CN(C(=O)c3ccc(C4CCCCC4)cc3)C2)CC1 [compound 100, 1-{1-[(4-Cyclohexylphenyl)carbonyl]azetidin-3-yl}-4-(3-methylpyridin-2-yl)piperazine]
pIC50 [3]: 5.19
pKd [4]: 5.18

O=C(c1ccc(Cc2ccccc2)cc1)N1CCN(C2CN(c3ncccn3)C2)CC1 [compound 131, 2-(3-(4-[(4-Benzylphenyl)carbonyl]piperazin-1-yl}azetidin-1-yl)pyrimidine]
pIC50 [3]: 6.20
pKd [4]: 6.47

O=C(c1ccc(C2CCCCC2)cc1)N1CC(N2CCN(c3noc4ccccc34)CC2)C1 [compound 33, 3-(4-{1-[(4-Cyclohexylphenyl)carbonyl]azetidin-3-yl}piperazin-1-yl)-1,2-benzisoxazole]
pIC50 [3]: 7.26
pKd [4]: 7.57

O=C(c1ccc(Cc2ccccc2)cc1)N1CC(N2CCN(c3ncccc3I)CC2)C1 [compound 114, 1-{1-[(4-Benzylphenyl)carbonyl]azetidin-3-yl}-4-(3-iodopyridin-2-yl)piperazine]
pIC50 [3]: 5.10
pKd [4]: 5.00

O=C(c1cccc(N2Cc3ccccc3C2)c1)N1CC(N2CCN(c3ccccn3)CC2)C1 [compound 81, 2-(3-{[3-(4-Pyridin-2-ylpiperazin-1-yl)azetidin-1-yl]carbonyl}phenyl)-2,3-dihydro-1H-isoindole]
pIC50 [3]: 5.69
pKd [4]: 5.94

O=C(c1ccc2[nH]ccc2c1)N1CC(N2CCN(c3ccccn3)CC2)C1 [compound 121, 5-{[3-(4-Pyridin-2-ylpiperazin-1-yl)azetidin-1-yl]carbonyl}-1H-indole]
pIC50 [3]: 5.51
pKd [4]: 5.60

O=C(c1ccc(-c2ccc(Cl)c(Cl)c2)cc1)N1CC(N2CCN(c3ncccn3)CC2)C1 [compound 11, 2-(4-{1-[(3′,4′-Dichlorobiphenyl-4-yl)carbonyl]azetidin-3-yl}piperazin-1-yl)pyrimidine]
pIC50 [3]: 7.92
pKd [4]: 8.40

CC(C)c1ccc(/C=C/C(=O)N2CC(N3CCN(c4ccccn4)CC3)C2)cc1 [compound 65, 1-(1-{(2E)-3-[4-(1-Methylethyl)phenyl]prop-2-enoyl}azetidin-3-yl)-4-pyridin-2-ylpiperazine]
pIC50 [3]: 6.26
pKd [4]: 6.31

O=C(c1ccc(-n2ccnc2)cc1)N1CC(N2CCN(c3ncccn3)CC2)C1 [compound 71, 2-[4-(1-{[4-(1H-Imidazol-1-yl)phenyl]carbonyl}azetidin-3-yl)piperazin-1-yl]pyrimidine]
pIC50 [3]: 6.12
pKd [4]: 5.49

O=C(c1ccc2c(c1)CCCN2)N1CC(N2CCN(c3ccc(C(F)(F)F)cc3)CC2)C1 [compound 133, 6-[(3-{4-[4-(Trifluoromethyl)phenyl]piperazin-1-yl}azetidin-1-yl)carbonyl]-1,2,3,4-tetrahydroquinoline]
pIC50 [3]: 6.07
pKd [4]: 4.82

O=C(c1ccc(-c2ccccc2)cc1)N1CC(N2CCN(c3ccccc3[N+](=O)[O-])CC2)C1 [compound 105, 1-[1-(Biphenyl-4-ylcarbonyl)azetidin-3-yl]-4-(2-nitrophenyl)piperazine]
pIC50 [3]: 4.94
pKd [4]: < 4.12

O=C(c1ccc(C2CCCCC2)cc1)N1CC(N2CCN(c3ccccn3)CC2)C1 [compound 15, 1-{1-[(4-Cyclohexylphenyl)carbonyl]azetidin-3-yl}-4-pyridin-2-ylpiperazine]
pIC50 [3]: 7.74
pKd [4]: 7.04

CCCCc1ccc(C(=O)N2CC(N3CCN(c4ccccn4)CC3)C2)nc1 [compound 119, 1-{1-[(5-Butylpyridin-2-yl)carbonyl]azetidin-3-yl}-4-pyridin-2-ylpiperazine]
pIC50 [3]: 5.63
pKd [4]: 5.35

Cc1cc(C(=O)N2CC(N3CCN(c4ncccn4)CC3)C2)ccc1I [compound 50, 2-(4-{1-[(4-Iodo-3-methylphenyl)carbonyl]azetidin-3-yl}piperazin-1-yl)pyrimidine]
pIC50 [3]: 6.75
pKd [4]: 6.55

Cc1ccnc(N2CCN(C3CN(C(=O)c4ccc(-c5ccccc5)cc4)C3)CC2)c1 [compound 102, 1-[1-(Biphenyl-4-ylcarbonyl)azetidin-3-yl]-4-(4-methylpyridin-2-yl)piperazine]
pIC50 [3]: 5.18
pKd [4]: 5.89

O=C(c1ccc(-c2ccccc2)c(F)c1)N1CC(N2CCN(c3ncccn3)CC2)C1 [compound 26, 2-(4-{1-[(2-Fluorobiphenyl-4-yl)carbonyl]azetidin-3-yl}piperazin-1-yl)pyrimidine]
pIC50 [3]: 7.49
pKd [4]: 7.29

O=C(c1ccc(C2CCCCC2)cc1)N1CC(N2CCN(c3nc4ccccc4s3)CC2)C1 [compound 104, 2-(4-{1-[(4-Cyclohexylphenyl)carbonyl]azetidin-3-yl}piperazin-1-yl)-1,3-benzothiazole]
pIC50 [3]: 5.00
pKd [4]: 4.65

CCC(C)(C)c1ccc(C(=O)N2CC(N3CCN(c4ccccn4)CC3)C2)cc1 [compound 44, 1-(1-{[4-(1,1-Dimethylpropyl)phenyl]carbonyl}azetidin-3-yl)-4-pyridin-2-ylpiperazine]
pIC50 [3]: 6.90
pKd [4]: 6.25

O=C(c1cccc(-c2ccccc2)c1)N1CC(N2CCN(c3ccccn3)CC2)C1 [compound 67, 1-[1-(Biphenyl-3-ylcarbonyl)azetidin-3-yl]-4-pyridin-2-ylpiperazine]
pIC50 [3]: 6.21
pKd [4]: 6.10

O=C(c1ccc2c(c1)CCCN2c1ccccc1)N1CC(N2CCN(c3ccccc3)CC2)C1 [compound 132, 1-Phenyl-6-{[3-(4-phenylpiperazin-1-yl)azetidin-1-yl]carbonyl}-1,2,3,4-tetrahydroquinoline]
pIC50 [3]: 5.91
pKd [4]: 5.22

COc1ccccc1N1CCN(C2CN(C(=O)c3ccc(-c4ccccc4)cc3)C2)CC1 [compound 89, 1-[1-(Biphenyl-4-ylcarbonyl)azetidin-3-yl]-4-(2-methoxyphenyl)piperazine]
pIC50 [3]: 5.35
pKd [4]: 5.20

O=C(c1ccc2[nH]c(-c3ccccc3)nc2c1)N1CC(N2CCN(c3ccccn3)CC2)C1 [compound 49, 2-Phenyl-5-{[3-(4-pyridin-2-ylpiperazin-1-yl)azetidin-1-yl]carbonyl}-1H-benzimidazole]
pIC50 [3]: 6.77
pKd [4]: 6.15

O=C(CCc1cccc(I)c1)N1CC(N2CCN(c3ncccn3)CC2)C1 [compound 64, 2-(4-{1-[3-(3-Iodophenyl)propanoyl]azetidin-3-yl}piperazin-1-yl)pyrimidine]
pIC50 [3]: 6.26
pKd [4]: 6.11

O=C(c1ccc(NCc2ccccc2I)cc1)N1CC(N2CCN(c3ncccn3)CC2)C1 [compound 7, N-(2-Iodobenzyl)-4-{[3-(4-pyrimidin-2-ylpiperazin-1-yl)azetidin-1-yl]carbonyl}aniline]
pIC50 [3]: 8.05
pKd [4]: 8.70

CCCCCC1CCC(C(=O)N2CC(N3CCN(c4ccccn4)CC3)C2)CC1 (stereo not shown) [compound 54, 1-{1-[(4-Pentylcyclohexyl)carbonyl]azetidin-3-yl}-4-pyridin-2-ylpiperazine]
pIC50 [3]: 6.58
pKd [4]: 5.88

pIC50, pKd: −log10 of the molar value. Like-named read-outs stand apart in the source and are kept apart here.
